Measurements from PubChem BioAssay AID256 (DTP/NCI, 2004).
Inconclusive results and toxic doses are left out. Some entries of the source have several records that differ or are many. This list holds those alone. The source may hold further records. Values given together are repeats across runs, samples, wells, individuals or studies.

Tested on: CD2F1 mice, L1210 leukemia ip, survival T/C
Assay: NCI In Vivo Anticancer Drug Screen. Data for tumor model L1210 Leukemia (intraperitoneal) in CD2F1 (CDF1) mice
Conditions: higher = longer survival
How it was run: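 Compound-dosed mice with transplantable tumor versus matched vehicle controls; endpoint ratio T/C reported.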

With `CCC1(O)C(=O)OCc2c1cc1n(c2=O)Cc2cc3cc(Cl)ccc3nc2-1` (stereo not given) the T/C (endpoint: median survival time, dose: 20.0 mg/kg/injection, schedule: Q04DX002 (ip), vehicle: saline with Tween-80) was 115 % of control and 158 % of control.

In the case of `NC1CCCCC1N.O=S(=O)([O-])c1ccccc1S(=O)(=O)[O-].[Pt+4]`, the T/C (endpoint: median survival time, dose: 3.12 mg/kg/injection, schedule: Q04DX003 (ip), vehicle: saline) is reported as 121 % of control and 150 % of control.

`Cc1cc(NCCCCCCCNc2cc(C)nc3cc(N)ccc23)c2ccc(N)cc2n1` was tested, and the T/C (endpoint: mean survival time, dose: 3.12 mg/kg/injection, schedule: Q01DX009 (ip), vehicle: saline with Tween-80) was 121 % of control and 151 % of control.

With `COc1cc(NCc2ccc3nc(N)nc(N)c3c2C)cc(OC)c1OC` the T/C (endpoint: median survival time, dose: 80.0 mg/kg/injection, schedule: Q01DX009 (ip), vehicle: sodium bicarbonate) was 102 % of control and 196 % of control.

`CN1N=C(N)c2cn(C3OC(COP(=O)(O)O)C(O)C3O)c3ncnc1c23` (stereo not given) was tested, and the T/C (endpoint: mean survival time, dose: 100.0 mg/kg/injection, schedule: Q01DX009 (ip), vehicle: water) was 114 % of control and 150 % of control.
